{"source": "the supplement of paper PMC10037445", "key": {"RAW-Dual [1]": {"tested_on": "RAW-Dual", "assay": "NF-kB SEAP reporter activity, fold change vs agonist alone; higher = enhanced NF-kB activity", "conditions": "library stock concentration (final ~1000-fold dilution): 10 mM", "procedure,_shortened": "(§1)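 Library stock was pin-tooled at 50 nL into 384-well plates of RAW-Dual macrophages (50,000 cells/well, DMEM), followed 1 h later by a PRR agonist, and the cells were kept at 37 °C, 5% CO2. Supernatant collected after 20 hours was read for IRF by QuantiLuc luminescence and for NF-κB by QuantiBlue absorbance at 620 nm. Reporter activity is fold change over agonist-alone wells, and a well counted as cytotoxic when its IncuCyte confluency was below 70% of agonist controls in both mask sets.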"}, "RAW-Dual [2]": {"tested_on": "RAW-Dual", "assay": "NF-kB SEAP reporter activity, fold change vs agonist alone; cytotoxicity flag (confluency mask): not cytotoxic; higher = enhanced NF-kB activity", "procedure,_shortened": "as §1"}, "RAW-Dual [3]": {"tested_on": "RAW-Dual", "assay": "NF-kB SEAP reporter activity, fold change vs agonist alone; cytotoxicity flag (confluency mask): cytotoxic (confluency <70% of control); higher = enhanced NF-kB activity", "procedure,_shortened": "as §1"}, "[4]": {"conditions": "cytotoxicity flag (confluency mask): not cytotoxic, agonist: Imiquimod (TLR7) […]"}, "[5]": {"conditions": "cytotoxicity flag (confluency mask): not cytotoxic, agonist: MPLA (TLR4) […]"}, "[6]": {"conditions": "agonist: ODN 1826 (TLR9) 0.5 ug/mL"}, "[7]": {"conditions": "agonist: Pam2CSK4 (TLR2/6) 0.1 ug/mL"}, "[8]": {"conditions": "agonist: Pam3CSK4 (TLR2/1) 0.1 ug/mL"}}, "note": "“And” between values parts separate entries of the source, which are not always exact repeats. Equal values may be shown once. In all, about 2,900 compounds were measured (“NF-kB SEAP reporter activity, fold change vs agonist alone”: median about 0.99, highest 2% from about 2.6 on). Some of the results follow.", "data": [{"smiles": "COc1cccc(-c2cc(=O)c3ccccc3o2)c1N", "values": [{"measurement": "NF-kB SEAP reporter activity", "setting": "RAW-Dual [1]; [4]", "value": 0.644}, {"measurement": "NF-kB SEAP reporter activity", "setting": "RAW-Dual [1]; [5]", "value": 0.594}]}, {"smiles": "COc1cccc(-c2cc(=O)c3ccccc3o2)c1N", "note": "(library stock concentration (final ~1000-fold dilution): 10 mM)", "values": [{"measurement": "NF-kB SEAP reporter activity", "setting": "RAW-Dual [2]; agonist: LPS (TLR4) 0.1 ug/mL", "value": 0.529}, {"measurement": "NF-kB SEAP reporter activity", "setting": "RAW-Dual [2]; [6]", "value": 0.771}, {"measurement": "NF-kB SEAP reporter activity", "setting": "RAW-Dual [2]; [7]", "value": 0.432}, {"measurement": "NF-kB SEAP reporter activity", "setting": "RAW-Dual [2]; [8]", "value": 0.632}]}, {"smiles": "Cc1cc(CS(=O)(=O)c2ccccc2)cc(OCc2ccc(CN3CCCC3CO)cc2)c1", "note": "(stereo not drawn) (library stock concentration (final ~1000-fold dilution): 10 mM)", "values": [{"measurement": "NF-kB SEAP reporter activity", "setting": "RAW-Dual [2]; agonist: LPS (TLR4) 0.1 ug/mL", "value": 0.875}, {"measurement": "NF-kB SEAP reporter activity", "setting": "RAW-Dual [2]; [6]", "value": 0.198}, {"measurement": "NF-kB SEAP reporter activity", "setting": "RAW-Dual [2]; [7]", "value": 1.06}, {"measurement": "NF-kB SEAP reporter activity", "setting": "RAW-Dual [2]; [8]", "value": 0.976}]}, {"smiles": "Cc1cc(CS(=O)(=O)c2ccccc2)cc(OCc2ccc(CN3CCCC3CO)cc2)c1", "note": "(stereo not drawn)", "values": [{"measurement": "NF-kB SEAP reporter activity", "setting": "RAW-Dual [1]; [4]", "value": 0.658}, {"measurement": "NF-kB SEAP reporter activity", "setting": "RAW-Dual [1]; [5]", "value": 1.18}]}, {"smiles": "CCc1cc(Nc2nccc(-c3c(-c4ccc(OC)c(C(=O)Nc5c(F)cccc5F)c4)nc4ccccn34)n2)c(OC)cc1N1CCC(N2CCN(S(C)(=O)=O)CC2)CC1", "values": [{"measurement": "NF-kB SEAP reporter activity", "setting": "RAW-Dual [1]; [4]", "value": 1.04}, {"measurement": "NF-kB SEAP reporter activity", "setting": "RAW-Dual [1]; [5]", "value": 1.31}]}, {"smiles": "CCc1cc(Nc2nccc(-c3c(-c4ccc(OC)c(C(=O)Nc5c(F)cccc5F)c4)nc4ccccn34)n2)c(OC)cc1N1CCC(N2CCN(S(C)(=O)=O)CC2)CC1", "note": "(library stock concentration (final ~1000-fold dilution): 10 mM)", "values": [{"measurement": "NF-kB SEAP reporter activity", "setting": "RAW-Dual [2]; agonist: LPS (TLR4) 0.1 ug/mL", "value": 1.06}, {"measurement": "NF-kB SEAP reporter activity", "setting": "RAW-Dual [2]; [6]", "value": 1.57}, {"measurement": "NF-kB SEAP reporter activity", "setting": "RAW-Dual [2]; [7]", "value": 0.741}, {"measurement": "NF-kB SEAP reporter activity", "setting": "RAW-Dual [2]; [8]", "value": 0.924}]}, {"smiles": "Cc1nc(Nc2n[nH]c3c2CN(C(=O)NC(CN(C)C)c2ccccc2)C3(C)C)c2sccc2n1", "note": "(stereo not drawn)", "values": [{"measurement": "NF-kB SEAP reporter activity", "setting": "RAW-Dual [1]; cytotoxicity flag (confluency mask): cytotoxic (confluency <70% of control), agonist: Imiquimod (TLR7) […]", "value": 0.392}, {"measurement": "NF-kB SEAP reporter activity", "setting": "RAW-Dual [1]; cytotoxicity flag (confluency mask): cytotoxic (confluency <70% of control), agonist: MPLA (TLR4) […]", "value": 0.218}]}, {"smiles": "Cc1nc(Nc2n[nH]c3c2CN(C(=O)NC(CN(C)C)c2ccccc2)C3(C)C)c2sccc2n1", "note": "(stereo not drawn) (library stock concentration (final ~1000-fold dilution): 10 mM)", "values": [{"measurement": "NF-kB SEAP reporter activity", "setting": "RAW-Dual [3]; agonist: LPS (TLR4) 0.1 ug/mL", "value": 0.277}, {"measurement": "NF-kB SEAP reporter activity", "setting": "RAW-Dual [3]; [6]", "value": 0.215}, {"measurement": "NF-kB SEAP reporter activity", "setting": "RAW-Dual [3]; [7]", "value": 0.0634}, {"measurement": "NF-kB SEAP reporter activity", "setting": "RAW-Dual [3]; [8]", "value": 0.15}]}, {"smiles": "O=C1c2cccc3c2C(CCC3)CN1C1CN2CCC1CC2", "note": "(stereo not drawn)", "values": [{"measurement": "NF-kB SEAP reporter activity", "setting": "RAW-Dual [1]; [4]", "value": 0.886}, {"measurement": "NF-kB SEAP reporter activity", "setting": "RAW-Dual [1]; [5]", "value": 1.17}]}, {"smiles": "O=C1c2cccc3c2C(CCC3)CN1C1CN2CCC1CC2", "note": "(stereo not drawn) (library stock concentration (final ~1000-fold dilution): 10 mM)", "values": [{"measurement": "NF-kB SEAP reporter activity", "setting": "RAW-Dual [2]; agonist: LPS (TLR4) 0.1 ug/mL", "value": 1.5}, {"measurement": "NF-kB SEAP reporter activity", "setting": "RAW-Dual [2]; [6]", "value": 0.937}, {"measurement": "NF-kB SEAP reporter activity", "setting": "RAW-Dual [2]; [7]", "value": 0.587}, {"measurement": "NF-kB SEAP reporter activity", "setting": "RAW-Dual [2]; [8]", "value": 0.339}]}, {"smiles": "O=C(Nc1ccccc1C(=O)NC1CCCCNC1=O)c1cc2ccccc2s1", "note": "(stereo not drawn) (library stock concentration (final ~1000-fold dilution): 10 mM)", "values": [{"measurement": "NF-kB SEAP reporter activity", "setting": "RAW-Dual [2]; agonist: LPS (TLR4) 0.1 ug/mL", "value": 2.62}]}, {"smiles": "COc1ccc2c(c1)c(CC(=O)O)c(C)n2C(=O)c1ccc(Cl)cc1", "note": "(library stock concentration (final ~1000-fold dilution): 10 mM)", "values": [{"measurement": "NF-kB SEAP reporter activity", "setting": "RAW-Dual [2]; agonist: LPS (TLR4) 0.1 ug/mL", "value": "1.12 and 1.16"}, {"measurement": "NF-kB SEAP reporter activity", "setting": "RAW-Dual [2]; [6]", "value": "1.03 and 1.01"}, {"measurement": "NF-kB SEAP reporter activity", "setting": "RAW-Dual [2]; [7]", "value": "0.916 and 0.929"}, {"measurement": "NF-kB SEAP reporter activity", "setting": "RAW-Dual [2]; [8]", "value": "0.933 and 1.08"}]}, {"smiles": "COc1ccc2c(c1)c(CC(=O)O)c(C)n2C(=O)c1ccc(Cl)cc1", "values": [{"measurement": "NF-kB SEAP reporter activity", "setting": "RAW-Dual [1]; [4]", "value": 1.2}]}, {"smiles": "Nc1nc2ccc(OC(F)(F)F)cc2s1", "note": "(library stock concentration (final ~1000-fold dilution): 10 mM)", "values": [{"measurement": "NF-kB SEAP reporter activity", "setting": "RAW-Dual [2]; agonist: LPS (TLR4) 0.1 ug/mL", "value": 0.806}, {"measurement": "NF-kB SEAP reporter activity", "setting": "RAW-Dual [2]; [6]", "value": 0.803}, {"measurement": "NF-kB SEAP reporter activity", "setting": "RAW-Dual [2]; [7]", "value": 0.803}, {"measurement": "NF-kB SEAP reporter activity", "setting": "RAW-Dual [2]; [8]", "value": 0.878}]}, {"smiles": "Nc1nc2ccc(OC(F)(F)F)cc2s1", "values": [{"measurement": "NF-kB SEAP reporter activity", "setting": "RAW-Dual [1]; [4]", "value": 0.815}, {"measurement": "NF-kB SEAP reporter activity", "setting": "RAW-Dual [1]; [5]", "value": 1.02}]}, {"smiles": "CNC(=O)c1cc(Oc2ccc(NC(=O)Nc3cc(C(C)(C)C)nn3-c3ccc4ncccc4c3)c(F)c2)ccn1", "values": [{"measurement": "NF-kB SEAP reporter activity", "setting": "RAW-Dual [1]; [4]", "value": 0.665}, {"measurement": "NF-kB SEAP reporter activity", "setting": "RAW-Dual [1]; [5]", "value": 0.84}]}, {"smiles": "CNC(=O)c1cc(Oc2ccc(NC(=O)Nc3cc(C(C)(C)C)nn3-c3ccc4ncccc4c3)c(F)c2)ccn1", "note": "(library stock concentration (final ~1000-fold dilution): 10 mM)", "values": [{"measurement": "NF-kB SEAP reporter activity", "setting": "RAW-Dual [2]; agonist: LPS (TLR4) 0.1 ug/mL", "value": 0.224}, {"measurement": "NF-kB SEAP reporter activity", "setting": "RAW-Dual [2]; [6]", "value": 0.923}, {"measurement": "NF-kB SEAP reporter activity", "setting": "RAW-Dual [2]; [7]", "value": 0.0923}, {"measurement": "NF-kB SEAP reporter activity", "setting": "RAW-Dual [2]; [8]", "value": 0.401}]}]}
